From PubChem BioAssay AID463173 (ICCB-Longwood Screening Facility, Harvard Medical School, 2010)
The whole screen tested about 52,000 compounds, of which about 4,300 (8.3%) were called active. Rule as the data show it: active = survival mostly below about 52% (no sharp cut-off); inactive = mostly above about 56%. This is one part of the list.

test system: DeltatarO mutant; test: S. aureus survival, RN4220 and DeltatarO strains – OD600, teichoic acid synthesis inhibitors, primary screen (AID 463173); conditions: S. aureus RN4220 wild type/DeltatarO growth, OD600, 18 h, hits give low values, screened at 18.75 µg/mL (by protocol)

Row | Structure (SMILES) | survival
1 | COc1ccc(C)cc1NC(=O)CN(C)S(=O)(=O)c1ccc2[nH]c(=O)oc2c1 | inactive: 78%
2 | CCc1ccc(-c2[nH]nc3nc(-c4cc(OC)ccc4OC)cc(C(=O)O)c23)cc1 | inactive: 97%
3 | O=C(O)C1C2C=CC(C2)C1C(=O)NCCN1CCOCC1 (stereo not drawn) | inactive: 82%
4 | O=C(COc1ccccc1Cl)Nc1ccc2nc(SCC(=O)N3CCOCC3)sc2c1 | inactive: 76%
5 | O=S(=O)(c1ccc2nc(Nc3ccc(Br)cc3F)ccc2c1)N1CCCCC1 | inactive: 70%
6 | CCSc1nc2sc3c(c2c(=O)n1-c1ccc(C)c(Cl)c1)CCN(C(C)=O)C3 | inactive: 61%
7 | N#Cc1ccc(C(=O)Nc2ccccc2-c2nc3ccccc3s2)c(F)c1 | inactive: 78%
8 | COc1ccc(OCc2ccc(-c3nc(C#N)c(NCc4ccccc4)o3)o2)cc1 | inactive: 78%
9 | CCOC(=O)Cc1ccc(NC(=O)n2ncc3cc(Cl)ccc32)cc1 | inactive: 83%
10 | CNS(=O)(=O)c1ccc(NC(=O)c2cnn3c(C(F)F)cc(-c4ccccc4)nc23)cc1 | inactive: 66%
11 | CCOC(=O)c1cnc2c(Cl)c(Cl)ccc2c1NCCN1CCOCC1 | active: 42%
12 | Cc1c(-c2cccc(NC(=O)c3ccc(F)c(F)c3)c2)nc2ncccn12 | inactive: 84%
13 | CCc1ccccc1NS(=O)(=O)c1ccc2oc(=O)c3ncn(C)c3c2c1 | inactive: 122%
14 | COc1ccc(OC)c(NC(=O)CSc2nnc(NC(=O)C3CC3)s2)c1 | inactive: 107%
15 | COCCOC(=O)c1c(C)oc2c1cc(NS(=O)(=O)c1ccc(Cl)c(C)c1)c1ccccc12 | active: 44%
16 | O=C(CN(Cc1ccco1)C(=O)c1nsc(Cl)c1Cl)NC1CCCCC1 | inactive: 106%
17 | COc1ccc(Nc2ncnc3c2c(-c2ccccc2)cn3-c2ccc(C)c(Cl)c2)cc1OC | inactive: 99%
18 | CCc1ccccc1NC(=O)CSc1ncccc1C(=O)O | inactive: 73%
19 | COc1cccc(CNC(=O)CCc2c(C)nc3c(c2C)c(=O)n(C)c(=O)n3C)c1 | inactive: 104%
20 | CCOc1ccc(C2C(C(=O)OC)=C(C)NC3=C2C(=O)c2ccccc23)cc1OC (stereo not drawn) | inactive: 48%
21 | CCc1ccc(NC(=O)C2CCCN(c3nn4cc(-c5ccc(OC)cc5)nc4s3)C2)cc1 (stereo not drawn) | inactive: 99%
22 | O=C(Nc1ccc(F)cc1Cl)C1CCN(c2ncnc3c2nc2n3CCCCC2)CC1 | inactive: 91%

Row | Structure (SMILES) | survival
23 | S=c1[nH]c2c(s1)sc1ccccc12 | inactive: 81%
24 | CN(C1CCCCC1)S(=O)(=O)c1ccc2c(c1)c(=O)c(C(=O)NCc1ccccc1Cl)cn2C | inactive: 73%
25 | O=C(NCC(c1ccc2c(c1)OCO2)N1CCN(c2ccc(F)cc2)CC1)c1cccc([N+](=O)[O-])c1 (stereo not drawn) | inactive: 74%
26 | COC(=O)c1c(NC(=O)COc2c(C)cccc2C)sc2c1CCCC2 | active: 2%
27 | CC1CCN(S(=O)(=O)c2ccc(C(=O)Nc3nc4ccc(F)cc4s3)cc2)CC1 | active: 46%
28 | CCOc1ccccc1NC(=O)c1cc2cc(C)ccc2n1C | inactive: 62%
29 | CCC1C=CCC2C(=O)N(CC(=O)NCCC3=CCCCC3)C(=O)C12 (stereo not drawn) | inactive: 73%
30 | Cc1ccc(C(=O)CSc2ncn(-c3ccccc3)n2)cc1 | inactive: 84%
31 | Cc1cccc(NC(=O)CSC2=Nc3ccccc3C3=NC(CCC(=O)NCc4ccc(F)cc4)C(=O)N23)c1 (stereo not drawn) | inactive: 112%
32 | CC(=O)c1ccc(NS(=O)(=O)c2cnc(N)nc2)cc1 | active: 6%
33 | CCOc1ccccc1NC(=O)Cc1csc(COc2cccc(C)c2)n1 | inactive: 85%
34 | O=C(NCCc1ccc(Cl)cc1)c1ccc(Cn2c(=O)[nH]c3ccccc3c2=O)cc1 | inactive: 105%
35 | CC(=O)c1cccc(Nc2ncnc3c2cnn3C)c1 | inactive: 67%
36 | Cc1ccc(-n2c3c(c(=O)[nH]c2=O)C(NS(=O)(=O)c2ccc(C)cc2)(C(F)(F)F)C(=O)N3)cc1 (stereo not drawn) | inactive: 73%
37 | COc1ccc2[nH]cc(CCNC(=O)Nc3cccc(F)c3)c2c1 | inactive: 94%
38 | CC(C)=CCC(C)(C)C1OCCN1C(=O)Nc1ccccc1 (stereo not drawn) | inactive: 95%
39 | COc1ccc(Nc2nc3c(S(=O)(=O)c4ccc(Br)cc4)nnn3c3ccsc23)c(OC)c1 | inactive: 48%
40 | CC1CCN(c2cc3c(cc2F)c(=O)c(S(=O)(=O)c2ccc(Cl)cc2)cn3C)CC1 | inactive: 99%
41 | Cc1ccc(CNc2oc(-c3ccc(COc4ccc(Cl)cc4)o3)nc2C#N)cc1 | inactive: 59%
42 | CCOC(=O)c1c(NC(=O)c2cc(-c3ccc(Cl)cc3)on2)sc2c1CCCC2 | inactive: 68%
43 | CNC(=S)N1C2CCC1CC(NC(=O)NC13CC4CC(CC(C4)C1)C3)C2 (stereo not drawn) | inactive: 79%
44 | CC1CCCN(CC(O)CN)C1 (stereo not drawn) | inactive: 96%

Row | Structure (SMILES) | survival
45 | CCOc1ccc(-c2cc3nc(C4CCN(C(=O)OC(C)(C)C)CC4)c(C(=O)Nc4ccc(C)c(F)c4)cn3n2)cc1 | inactive: 78%
46 | CCC(=O)N1CCc2cc(Br)cc(S(=O)(=O)N3CCC(C(=O)N(CC)CC)CC3)c21 | inactive: 90%
47 | CCn1cc(C(=O)N2CCN(c3cc(Cl)ccc3C)CC2)c(=O)c2cc(S(=O)(=O)N3CCOCC3)ccc21 | inactive: 77%
48 | CCc1ccc(NC(=O)C2CCC(CNS(=O)(=O)c3cccs3)CC2)cc1 (stereo not drawn) | inactive: 94%
49 | COc1cccc(CNC(=O)c2ccc3c(c2)N(C)C(=O)C2CCCCN32)c1 (stereo not drawn) | inactive: 72%
50 | COc1ccc(-c2nc(SCC(=O)Nc3ccc4c(c3)OCO4)c(-c3ccccc3)[nH]2)cc1 | inactive: 75%
51 | COc1ccccc1NC(=O)C1=C(C)Nc2nc(-c3ccco3)nn2C1c1ccccc1 (stereo not drawn) | inactive: 74%
52 | Cc1ccccc1NC(=O)c1c(NC(=O)c2ccncc2)sc2c1CCC(C(C)(C)C)C2 (stereo not drawn) | inactive: 110%
53 | Cc1ccc(NC(=O)CN(C)S(=O)(=O)c2cccc3cccnc23)cc1F | inactive: 63%
54 | COc1ccc(Cl)cc1Nc1nc2ccc(C(=O)c3ccccc3)cc2n2cnnc12 | inactive: 60%
55 | CCOC(=O)Cc1ccc(NC(=O)N2CCc3c(sc4c3CCCC4)C2c2ccc(F)cc2)cc1 (stereo not drawn) | inactive: 91%
56 | CCn1c(=O)c2cc(C(=O)N3CCN(c4cccc(OC)c4)CC3)sc2c2ccccc21 | active: 53%
57 | CCc1ccc(C(c2ccccc2)c2c[nH]c3ccc(C)cc23)s1 (stereo not drawn) | inactive: 69%
58 | CN(CC(=O)Nc1ccc(Cl)cc1F)S(=O)(=O)c1ccc2c(c1)n(C)c(=O)c(=O)n2C | inactive: 115%
59 | Cc1sc2ncn(CC(=O)N3CCN(c4ccccc4)CC3)c(=O)c2c1S(=O)(=O)N1CCN(c2ncccn2)CC1 | inactive: 126%
60 | CCc1cccc(-n2nnc(-c3nsc(NC(=O)c4ccc(C)cc4)n3)c2C)c1 | inactive: 54%
61 | Cc1ccccc1NC(=O)C(=O)NCC1(c2ccccc2)CCCC1 | inactive: 73%
62 | CCN1CCN(c2ncc3c(n2)CCN(Cc2sccc2C)C3)CC1 | inactive: 67%
63 | O=C(CSc1nnc2scc(-c3ccc(Cl)cc3)n12)Nc1cccc(C(F)(F)F)c1 | inactive: 58%
64 | COc1cc(NC(=O)CC(C)S(=O)(=O)c2ccc3c(c2)CCN3C(C)=O)cc(OC)c1OC (stereo not drawn) | inactive: 92%
65 | CCOc1ccc(Nc2nc(C)c(NC(=O)c3ccc(C)cc3)c(Nc3ccc(OCC)cc3)n2)cc1 | inactive: 123%
66 | O=C(CSc1nnc(Cc2ccccc2)n1Cc1ccccc1)N1CCCC1 | inactive: 77%

Row | Structure (SMILES) | survival
67 | CCc1ccc(CNC(=O)CSc2c3c(nc4ccc(Cl)cc24)CCCC3)cc1 | inactive: 63%
68 | O=C(NCCn1cc(SCc2ccccc2F)c2ccccc21)c1cccs1 | inactive: 54%
69 | CCS(=O)(=O)NCC(c1ccco1)N1CCN(c2ccccc2)CC1 (stereo not drawn) | inactive: 97%
70 | CSc1nc(Nc2ccc(C)cc2)c(C#N)c(-c2ccccc2)n1 | inactive: 104%
71 | Cc1ccc2c(c1)C(c1ccccc1)N(C(=O)c1ccc(S(=O)(=O)N3CCCCC3)cc1)CC(=O)N2 (stereo not drawn) | inactive: 85%
72 | Fc1ccc(C(Nc2ccccc2Cl)c2nnc(-c3ccccc3Cl)o2)cc1 (stereo not drawn) | inactive: 83%
73 | Cc1ccc(NC(=O)[C@H]2O[C@@H]3OC(C)(C)O[C@@H]3[C@H]3OC(C)(C)O[C@H]32)cc1F | inactive: 97%
74 | Cc1ccc(NC(=O)c2cccc(N3CCCS3(=O)=O)c2)cc1C | inactive: 89%
75 | CC(C(=O)Nc1ccccc1C(F)(F)F)n1nnc2sc3c(c2c1=O)CCCC3 (stereo not drawn) | inactive: 81%
76 | O=C(N/C(=C\c1ccc(F)cc1)C(=O)N1CCOCC1)c1ccccc1 | inactive: 98%
77 | COc1ccccc1CNS(=O)(=O)c1cc(Br)cc2c1N(C(C)=O)C(C)C2 (stereo not drawn) | inactive: 53%
78 | O=C(Cc1cccs1)Nc1ccccc1 | inactive: 70%
79 | COc1cc(Cl)c(NC(=O)c2cc(CN3CCCC3)on2)c(OC)c1 | inactive: 94%
80 | CCc1ccc(CNC(=O)C2CCCN(c3nnc(C)c4c(C)n(-c5ccc(OC)cc5)nc34)C2)cc1 (stereo not drawn) | inactive: 94%
81 | Cc1ccc(N2CC(c3nnc(Cc4ccc(F)cc4)o3)CC2=O)cc1 (stereo not drawn) | active: 24%
82 | O=c1c(=O)n(-c2ccccc2)ccn1Cc1cccc(C(F)(F)F)c1 | inactive: 107%
83 | O=C(NCc1ccc(F)cc1)c1ccc(CS(=O)Cc2ccc(Cl)cc2)o1 (stereo not drawn) | inactive: 110%
84 | Cc1ccc(NC(=O)c2cc3nc(-c4ccc5c(c4)OCO5)cc(C(F)(F)F)n3n2)cc1Cl | inactive: 85%
85 | COC(=O)c1ccc(NS(=O)(=O)c2c(C)nc3sccn3c2=O)cc1 | active: 72%
86 | COc1cccc(-n2ccnc2SCC(=O)Nc2ccc(Cl)c(Cl)c2)c1 | inactive: 125%
87 | COc1ccc(C2CC(=O)c3cnc4c(-c5ccccc5)c(C)nn4c3C2)cc1OC (stereo not drawn) | inactive: 54%
88 | O=C(CSc1nccn1-c1ccc(Cl)cc1)Nc1cccc2ccccc12 | inactive: 95%
